Source: PubChem BioAssay AID1159614 (National Center for Advancing Translational Sciences (NCATS), 2016)
In all, about 45,000 compounds went through this assay and about 65 (0.1%) were called active. The call rests on the fitted dose curve; in most records, active means well fitted activation curve with a large enough effect; inconclusive means small, poorly fitted or top-dose-only effect; inactive means no such curve, though single readings can be large or run the other way. The list shows a part of the results.

Target: Galactocerebrosidase (Homo sapiens) (UniProt P54803)
Experiment: A Novel Cell-Based Assay to Identify Small Molecules for B -Galactocerebrosidase; further: 0% is about no effect; nearly all actives have a fitted effect of over 65% in size
Settings: 145M-Twi-hGALC-G270D cells (Twitcher mouse brain line with human GALC G270D), HMU-beta-Gal fluorescence, 48 h; series mostly up to 57.5 µM; activation: at the top concentration
In short: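 Fluorescence readout: HMU-β-gal cleavage by mutant GALC (0.1 mM final, citrate/phosphate pH 5.2 with 1 mg/mL taurocholate), stopped with carbonate/bicarbonate plus Triton X-100. Cells: murine Twitcher 145M-Twi expressing human G270D GALC; qHTS for activators.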

UniProt P54803, sequence (P54803 whole entry, looked up): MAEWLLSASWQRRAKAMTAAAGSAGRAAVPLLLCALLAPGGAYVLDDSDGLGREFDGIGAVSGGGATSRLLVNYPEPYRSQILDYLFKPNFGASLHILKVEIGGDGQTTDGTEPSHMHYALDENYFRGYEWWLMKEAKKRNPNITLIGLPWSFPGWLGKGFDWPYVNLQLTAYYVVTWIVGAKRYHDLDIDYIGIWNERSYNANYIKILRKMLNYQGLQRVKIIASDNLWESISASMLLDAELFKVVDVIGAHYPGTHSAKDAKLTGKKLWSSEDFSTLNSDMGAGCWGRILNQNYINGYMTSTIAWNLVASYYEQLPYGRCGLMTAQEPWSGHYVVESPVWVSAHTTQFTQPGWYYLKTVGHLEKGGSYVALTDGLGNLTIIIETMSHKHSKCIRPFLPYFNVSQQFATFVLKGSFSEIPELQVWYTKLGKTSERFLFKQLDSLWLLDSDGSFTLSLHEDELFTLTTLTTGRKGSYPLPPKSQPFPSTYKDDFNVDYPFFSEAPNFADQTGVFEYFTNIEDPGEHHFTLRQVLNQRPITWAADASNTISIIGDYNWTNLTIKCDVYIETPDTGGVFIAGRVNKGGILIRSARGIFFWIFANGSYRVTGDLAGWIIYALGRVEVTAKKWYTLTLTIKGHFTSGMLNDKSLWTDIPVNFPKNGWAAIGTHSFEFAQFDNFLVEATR

SMILES	activation
Cc1c2cnn(CC(=O)Nc3cccc(C(F)(F)F)c3)c(=O)c2c(C)n1Cc1ccccc1Cl	inactive: -12.6%
COc1cc(C(=O)Nc2ccc3nc(SCc4ccccc4)sc3c2)cc(OC)c1OC	inactive: -12.5%
CCCNC(=O)C1CCC(Cn2c(=O)c3sccc3n(CC(=O)N3CCC(C)CC3)c2=O)CC1 (stereo unspecified)	inactive: -8.48%
Cc1cccc(OCC(=O)N(Cc2sccc2C)C2CCS(=O)(=O)C2)c1 (stereo unspecified)	inactive: -10.4%
COc1ccc(N2CCN(C(=O)c3ccc(-c4nc(COc5ccccc5)c(C)o4)cc3)CC2)cc1	inactive: -14.9%
COc1cccc(C2C(C(=O)Nc3ccc(C)cc3C)=C(C)Nc3c(C(=O)Nc4cccc(C)c4)cnn32)c1OC (stereo unspecified)	inactive: -14.9%
COc1cccc(N2CCN(C3C(=O)c4ccccc4N3C(C)=O)CC2)c1 (stereo unspecified)	inactive: -11.5%
CCOc1ccc(OCC)c(NC(=O)CN(C)S(=O)(=O)c2ccc3c(c2)CCCC(=O)N3)c1	inactive: -6.76%
O=C(Cn1nc(-c2ccc(Cl)cc2)ccc1=O)NCc1ccccc1Cl	inactive: -15.1%
COc1ccc(N2CCN(C(=O)c3nc(SC)ncc3Cl)CC2)cc1	inactive: -12.5%
CC(NC(=O)CCCn1c(=O)c2cccn2c2cccnc21)c1ccccc1 (stereo unspecified)	inactive: -0.681%
CCOc1ccc(-c2nc(C#N)c(NCCCOC)o2)cc1	inactive: -16.8%
Cc1coc2c(C)c3oc(=O)c(CCC(=O)NCCc4ccc(Cl)cc4)c(C)c3cc12	inactive: -10.9%
COc1ccc(C(C)C)cc1S(=O)(=O)NCCc1c(C)[nH]c2ccc(C)cc12	inactive: -13%
CC(C)(C)OC(=O)N1CCC(c2c(C(=O)N3CCc4ccccc4C3)cnn2-c2ccc(F)cc2)CC1	inactive: -11.4%
CC1=C(c2ccc(C)c(C)c2)S(=O)(=O)N=C1N1CCC(C(=O)NCc2ccc(C)o2)CC1	inactive: -4.16%
Cc1ccccc1OCCn1c(CCNC(=O)C(C)(C)C)nc2ccccc21	inactive: -13%
CC(NC(=O)CCSCc1ccccc1F)c1ccccc1 (stereo unspecified)	inactive: -6.83%
COc1ccc(-c2cc(-c3ccccc3)nc(SCC(=O)CC(=O)OC(C)C)c2C#N)cc1	inactive: -12.5%
O=C(c1ccc2c(c1)N(Cc1ccccc1F)C(=O)c1ccccc1S2(=O)=O)N1CCCC1	inactive: -12.4%
CCN(CCCNC(=O)c1cc2c(=O)n(CC)c3ccccc3c2s1)c1ccccc1	inactive: -24%
CCc1ccc(CNC(=O)CSc2cc(=O)n(C)c3ccc(Cl)cc23)cc1	inactive: -12.4%
COc1ccc(OC)c(CNC(=O)Cc2ccc(NC(=O)N3CCCCc4ccccc43)cc2)c1	inactive: -14.6%
COCCCNC(=O)c1c(NC(=O)Cc2coc3cc(C)cc(C)c23)sc2c1CCCC2	inactive: -19.4%

SMILES	activation
CCCNC(=O)CSc1nc2nc(C)c(Cc3ccccc3Cl)c(C)n2n1	inactive: -7.9%
O=C(CSc1nccn1Cc1ccc(F)cc1)Nc1ccc2c(c1)OCCO2	inactive: -15.4%
Cc1ccc(-c2noc(-c3nnn(CC(=O)Nc4cc(C)cc(C)c4)c3N)n2)cc1	inactive: -6.91%
CCN(CC)S(=O)(=O)c1cc(-c2onc(C)c2C)ccc1OC	inactive: -11.4%
COc1ccc(CCCc2nnc(SCC(=O)Nc3ccc(C)cc3C)o2)cc1	inactive: -7.5%
O=C(NCC(c1cccnc1)N1CCc2ccccc21)c1cccc(C(F)(F)F)c1 (stereo unspecified)	inactive: -14.9%
Cc1cc(F)ccc1NCc1ccccc1-c1nnc(-c2ccccc2Cl)o1	inactive: -11.3%
COc1ccc(C(=O)N(Cc2cc(OC)c(OC)c(OC)c2)CC2CCCO2)cc1 (stereo unspecified)	inactive: -3.45%
O=C(NCc1cccc(Cl)c1)C1CCN(C(=O)c2sccc2-n2cccc2)CC1	inactive: -2.76%
CCc1ccc(C(=O)c2cn(CC(=O)Nc3ccc(OC)cc3OC)c3ccc(CC)cc3c2=O)cc1	inactive: -15.7%
CC(=O)N1CCC(N(C(=O)Nc2c(F)cccc2F)C(C)C)CC1	inactive: -18.3%
Cc1ccc(N(C)C(=O)c2cnc(N3CCOCC3)c3ccccc23)cc1C	inactive: -2.41%
COc1cccc(C(=O)Nc2cccc(C(=O)OCc3cc(=O)n4nc(C(C)C)sc4n3)c2)c1	inactive: -9.57%
CSc1ccc(C2c3c(-c4ccccc4O)n[nH]c3C(=O)N2Cc2ccncc2)cc1 (stereo unspecified)	inactive: -12.5%
Cc1cccc2c(=O)cc(CSc3ccccc3NC(=O)c3cccc(Cl)c3)[nH]c12	inactive: -11.9%
CCCCn1cc2c(c1-c1ccc(Br)cc1)c(=O)n(C)c(=O)n2C	inactive: -10.4%
CCOc1ccc(-c2cc3c(=O)n(Cc4nc(-c5ccc(OCC)c(OC)c5)oc4C)ccn3n2)cc1Cl	inactive: 5.77%
Cc1ccc2nc(CSc3nnc(NC(=O)C(C)C)s3)cc(=O)n2c1	inactive: -7.33%
O=c1c2sc3ccccc3c2n(Cc2cccc(Cl)c2)c(=O)n1Cc1ccccc1	inactive: 0.0435%
CCCN1CCN(c2nnc(-n3cccc3C(=O)Nc3ccccc3C(F)(F)F)s2)CC1	inactive: -14.1%
COc1cc(NC(=O)NCCc2c(C)nn(C)c2C)cc(OC)c1OC	inactive: 4.17%
CCOc1ccc(OCC)c(NC(=O)c2cnn(-c3ccc(F)cc3)c2-n2cccc2)c1	inactive: -16.3%
CCc1ccc(-n2nc(C)c3c(C)cc(=O)n(CC(=O)Nc4cc(Cl)ccc4OC)c32)cc1	inactive: -16%
Cc1cccc(N2C(=O)CSC23C(=O)N(C)c2ccccc23)c1 (stereo unspecified)	inactive: 0.0447%

SMILES	activation
Cc1cccc(OCC(=O)Nc2c(C(=O)Nc3ccc(F)cc3)oc3ccccc23)c1	inactive: -8.15%
COc1ccc(NCc2cc3ccc(OC)cc3n(CC(=O)Nc3ccc(C)c(C)c3)c2=O)cc1	inactive: -9.75%
Cc1cccc(C(=O)NCCc2nc3ccccc3n2CCC(C)C)c1	inactive: -10.2%
CC(=O)Nc1ccc(S(=O)(=O)NCCc2csc3nc(-c4ccc(Cl)cc4)nn23)cc1	inactive: -13.2%
CC(C)(C)OC(=O)N1CCC(c2c(C(=O)N3CCN(c4cccc(Cl)c4)CC3)cnn2-c2cccc(Cl)c2)CC1	inactive: -22.6%
CCC1CN(C(=O)NCc2ccc(F)cc2)c2cc(C)ccc2O1 (stereo unspecified)	inactive: -10.2%
CCOC(=O)C1CCN(C(=O)Cn2nc(C)n3c(cc4c(OC)cccc43)c2=O)CC1	inactive: 7.04%
COc1cccc(C(c2sc3nc(-c4ccco4)nn3c2O)N2CCC(C)CC2)c1 (stereo unspecified)	inactive: -8.62%
O=C(CSc1ccnc(=O)[nH]1)NCc1ccc(F)cc1	inactive: -12.9%
CCc1ccc(NC(=O)C2CCCN(S(=O)(=O)c3ccc4[nH]c(=O)ccc4c3)C2)cc1 (stereo unspecified)	inactive: -0.392%
COc1ccc(OC)c(CCNC(=O)c2ccc3c(c2)N(Cc2ccccc2)CCS3)c1	inactive: -2.8%
COC(=O)c1sccc1S(=O)(=O)N1CCN(c2cccc(C)c2)C(C)C1 (stereo unspecified)	inactive: -1.53%
Cc1cccc(N(C)S(=O)(=O)c2nnc(NC(=O)C(C)Oc3ccccc3)s2)c1 (stereo unspecified)	inactive: -2.45%
CN1C(=O)c2ccccc2Sc2ccc(NC(=O)Cc3ccc(Cl)cc3)cc21	inactive: -9.11%
O=C(NCc1ccc(Cl)cc1)c1ccc2c(c1)nnn2C1CCCC1	inactive: -14.4%
CCCCc1ccc(NC(=O)Cn2cnc3c(oc4ccccc43)c2=O)cc1	inactive: -15.1%
Cc1ccc(-n2cc(-c3ccccc3)c3c(N4CCC(C)CC4)ncnc32)cc1Cl	inactive: -14.8%
COc1ccc(C)cc1NC(=O)CSc1nc(=O)n(Cc2ccco2)c2c1CCC2	inactive: 0.357%
O=C(NCc1ccccc1)C1CCN(c2ncnc3c2nc2n3CCCCC2)CC1	inactive: -11.9%
CCOC(=O)c1cccc(NC(=O)C2COc3ccc(OC)cc3C2)c1 (stereo unspecified)	inactive: -3.45%
Cc1ccc(CCNC(=O)C2CC(=O)N(CCc3ccc(C)cc3)C2)cc1 (stereo unspecified)	inactive: -14.8%
CCOC(=O)c1cnc2c(C)cc(C)cc2c1NCCN1CCOCC1	inactive: -24.2%
O=C(Nc1ccccc1OCc1cc(=O)n2ccccc2n1)Nc1ccccc1C(F)(F)F	inactive: -4.9%
Cc1nc2nc(NCc3ccccc3Cl)[nH]n2c(=O)c1Cc1ccccc1	inactive: -22.2%

SMILES	activation
Cc1ccccc1NC(=O)CSc1nc2c(oc3ccccc32)c(=O)n1Cc1ccco1	inactive: 6.43%
Cc1ccc(C)c(OCc2nc3ccccc3n2C)c1	inactive: -19%
CCCSC1=NC2(CCN(C(=O)NC3CCCCC3)CC2)N=C1c1ccc(C)cc1	inactive: -15.6%
Cc1cc(C)cc(N(CC(=O)Nc2c(C)cc(C)cc2C)S(=O)(=O)c2c(C)nn(C)c2C)c1	inactive: 4.37%
COc1ccc(C(=O)Nc2nc3c(s2)Cc2c(Br)ccc(OC)c2-3)cc1OC	inactive: 0.937%
Cc1ccc(Cn2c(CN3CCC(C(=O)O)CC3)cc3ccccc32)cc1	inactive: 2%
CCc1ccc(NC(=O)CSc2nnc(CC)c(CC)n2)cc1	inactive: -13.3%
CCN(CC)S(=O)(=O)c1cc(-c2ccc(=O)n(C(C)C(=O)Nc3cccc(C#N)c3)n2)ccc1C (stereo unspecified)	inactive: -9.38%
CN(CC(=O)Nc1ccc(F)cc1F)S(=O)(=O)c1cccc2nsnc12	inactive: -10.7%
COc1ccc(-c2noc(CSc3nnc(Cc4ccccc4)n3-c3ccc(F)cc3)n2)cc1	inactive: -16.1%
CCN(CC)CCCNC(=O)c1sc2nc3n(c(=O)c2c1C)CCCCC3	inactive: -12.7%
CCOC(=O)c1[nH]c2c(c1Cc1ccccc1)C(=O)CC(c1ccc(C(C)(C)C)cc1)C2 (stereo unspecified)	inactive: -43.8%
CCOC(=O)C1CCN(C(=O)c2cnn(-c3ccc(F)cc3)c2-n2cccc2)CC1	inactive: 5.98%
COc1cc(C2c3c(-c4c(C)cc(C)cc4O)n[nH]c3C(=O)N2Cc2ccco2)cc(OC)c1OC (stereo unspecified)	inactive: -6.64%
CCOC(=O)C(C)Sc1nnc2cc(C)c3ccccc3n12 (stereo unspecified)	inactive: -11.6%
COc1ccc2oc(-c3cccc(NC(=O)c4cc([N+](=O)[O-])ccc4N4CCOCC4)c3)nc2c1	inactive: -14.6%
CC(C)NC(=O)C1CCCN(c2ncnc3onc(-c4ccc(F)cc4)c23)C1 (stereo unspecified)	inactive: -8.02%
CCOc1ccccc1NC(=O)CCS(=O)(=O)c1ccc2c(c1)oc(=O)n2C	inactive: -22.2%
CCOc1cc(-c2nnc(SCC(=O)NC3CCCCC3)nc2-c2ccc(OC)c(OCC)c2)ccc1OC	inactive: -17.3%
COc1ccc(CNC(=O)CCCn2ccc3cc(S(=O)(=O)N4CCCC4)ccc32)cc1	inactive: -15.1%
Cc1ccc(-n2nc(C(=O)N(C)c3ccc(C)c(C)c3)c3c4ccccc4n(C)c3c2=O)cc1	inactive: -33.9%
COc1ccc2c(CNCCc3ccco3)c(C(=O)O)n(Cc3ccc(C)cc3)c2c1	inactive: -9.88%
COc1ccc(Nc2ncc3c(n2)CCN(Cc2sccc2C)C3)c(OC)c1	inactive: -10.7%
O=C(Cn1ncc2c3ccccc3n(Cc3ccccc3)c2c1=O)NCc1ccccn1	inactive: -8.76%
